The list shows a part of the results. Cut-off read from the data, not from the text of the source: active = 3.2 or more and inactive = the rest. Only a few entries rise above the background.
Biological target: SHP2 C-SH2 domain E139D
Assay: enrichment score (SH2-bound / input frequency) (ratio); bacterial display of known human phosphotyrosine sites (pTyr-Var adds point mutants) read by sequencing; higher = stronger binding; tyrosines were phosphorylated by kinases first
Settings: peptide library: Human pTyr
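Note: displayed peptides selected on beads carrying the immobilized SH2 domain, with library peptides lacking any tyrosine serving as negative controls.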

Enrichment score, inactive:
GMADGPVYEVPATPK [DPYL1_HUMAN_504_YA] 0.717
ILPPSSIYPSVLASG [DGKA_HUMAN_335] 0.725
YRLLLATYARPPRGP [DDR1_HUMAN_520] 0.74
VNDDQSFYADIAMED [DPYL2_HUMAN_32_YA] 1.2
NGMNQQAYAYPATAA [DDX5_HUMAN_593] 0.651
INDDQSLYADVYLED [DPYL1_HUMAN_32] 1.03
ARLLLATYARPPRGP [DDR1_HUMAN_520_YA] 0.742
GDEVEDLYELLKLVK [DPH6_HUMAN_97] 0.939
AQAQPEDYARFEAKI [DLG2_HUMAN_505_YA] 0.944
DEEMLFIYGHYKQAT [ACBP_HUMAN_29] 1.69
YNPATDDYAVPPPRS [DOK1_HUMAN_409] 0.549
GGQRREAYNDSSDEE [DNJA2_HUMAN_391] 1.15
WGRGTDEYFIRKPPS [ACHB_HUMAN_390] 1.72
GMYDGPVYEVPATPK [DPYL1_HUMAN_504] 0.723
GGMADPKYADLPGIA [DCTN2_HUMAN_6] 0.67
SPIAAEDYSPDDKPL [DNER_HUMAN_721_YA] 0.802
VQRKKPLYWDLYEHA [DOK1_HUMAN_337] 2.71
AGIAQGVYSRALLGN [ACD11_HUMAN_324_YA] 0.643

Biological target: SHP2 C-SH2 domain wild-type
Assay: as above
Settings: peptide library: Human pTyr

Enrichment score, inactive:
GMADGPVYEVPATPK [DPYL1_HUMAN_504_YA] 0.513
ILPPSSIYPSVLASG [DGKA_HUMAN_335] 0.555
YRLLLATYARPPRGP [DDR1_HUMAN_520] 0.595
VNDDQSFYADIAMED [DPYL2_HUMAN_32_YA] 1.07
NGMNQQAYAYPATAA [DDX5_HUMAN_593] 0.636
INDDQSLYADVYLED [DPYL1_HUMAN_32] 1.02
ARLLLATYARPPRGP [DDR1_HUMAN_520_YA] 0.605
GDEVEDLYELLKLVK [DPH6_HUMAN_97] 0.819
AQAQPEDYARFEAKI [DLG2_HUMAN_505_YA] 1.11
DEEMLFIYGHYKQAT [ACBP_HUMAN_29] 1.78
YNPATDDYAVPPPRS [DOK1_HUMAN_409] 0.562
GGQRREAYNDSSDEE [DNJA2_HUMAN_391] 1.06
WGRGTDEYFIRKPPS [ACHB_HUMAN_390] 1.38
GMYDGPVYEVPATPK [DPYL1_HUMAN_504] 0.519
GGMADPKYADLPGIA [DCTN2_HUMAN_6] 0.507
SPIAAEDYSPDDKPL [DNER_HUMAN_721_YA] 0.556
VQRKKPLYWDLYEHA [DOK1_HUMAN_337] 2.71
AGIAQGVYSRALLGN [ACD11_HUMAN_324_YA] 0.447

Biological target: SHP2 N-SH2 domain L43F
Assay: as above
Settings: peptide library: Human pTyr

Enrichment score, inactive:
GMADGPVYEVPATPK [DPYL1_HUMAN_504_YA] 0.513
ILPPSSIYPSVLASG [DGKA_HUMAN_335] 0.707
YRLLLATYARPPRGP [DDR1_HUMAN_520] 0.613
VNDDQSFYADIAMED [DPYL2_HUMAN_32_YA] 1.15
NGMNQQAYAYPATAA [DDX5_HUMAN_593] 0.565
INDDQSLYADVYLED [DPYL1_HUMAN_32] 0.947
ARLLLATYARPPRGP [DDR1_HUMAN_520_YA] 0.569
GDEVEDLYELLKLVK [DPH6_HUMAN_97] 0.816
AQAQPEDYARFEAKI [DLG2_HUMAN_505_YA] 0.987
DEEMLFIYGHYKQAT [ACBP_HUMAN_29] 1.64
YNPATDDYAVPPPRS [DOK1_HUMAN_409] 0.625
GGQRREAYNDSSDEE [DNJA2_HUMAN_391] 0.803
WGRGTDEYFIRKPPS [ACHB_HUMAN_390] 1.5
GMYDGPVYEVPATPK [DPYL1_HUMAN_504] 0.518
GGMADPKYADLPGIA [DCTN2_HUMAN_6] 0.596
SPIAAEDYSPDDKPL [DNER_HUMAN_721_YA] 1.05
VQRKKPLYWDLYEHA [DOK1_HUMAN_337] 2.7
AGIAQGVYSRALLGN [ACD11_HUMAN_324_YA] 0.42

Biological target: SHP2 N-SH2 domain T42A
Assay: as above
Settings: peptide library: Human pTyr

Enrichment score, inactive:
GMADGPVYEVPATPK [DPYL1_HUMAN_504_YA] 0.548
ILPPSSIYPSVLASG [DGKA_HUMAN_335] 0.501
YRLLLATYARPPRGP [DDR1_HUMAN_520] 0.696
VNDDQSFYADIAMED [DPYL2_HUMAN_32_YA] 0.991
NGMNQQAYAYPATAA [DDX5_HUMAN_593] 0.654
INDDQSLYADVYLED [DPYL1_HUMAN_32] 1.07
ARLLLATYARPPRGP [DDR1_HUMAN_520_YA] 0.525
GDEVEDLYELLKLVK [DPH6_HUMAN_97] 0.797
AQAQPEDYARFEAKI [DLG2_HUMAN_505_YA] 0.766
DEEMLFIYGHYKQAT [ACBP_HUMAN_29] 1.4
YNPATDDYAVPPPRS [DOK1_HUMAN_409] 0.563
GGQRREAYNDSSDEE [DNJA2_HUMAN_391] 0.919
WGRGTDEYFIRKPPS [ACHB_HUMAN_390] 1.43
GMYDGPVYEVPATPK [DPYL1_HUMAN_504] 0.634
GGMADPKYADLPGIA [DCTN2_HUMAN_6] 0.622
SPIAAEDYSPDDKPL [DNER_HUMAN_721_YA] 0.666
VQRKKPLYWDLYEHA [DOK1_HUMAN_337] 2.47
AGIAQGVYSRALLGN [ACD11_HUMAN_324_YA] 0.459

Biological target: SHP2 N-SH2 domain T52S
Assay: as above
Settings: peptide library: Human pTyr

Enrichment score, inactive:
GMADGPVYEVPATPK [DPYL1_HUMAN_504_YA] 0.679
ILPPSSIYPSVLASG [DGKA_HUMAN_335] 0.648
YRLLLATYARPPRGP [DDR1_HUMAN_520] 0.716
VNDDQSFYADIAMED [DPYL2_HUMAN_32_YA] 1.28
NGMNQQAYAYPATAA [DDX5_HUMAN_593] 0.604
INDDQSLYADVYLED [DPYL1_HUMAN_32] 1.13
ARLLLATYARPPRGP [DDR1_HUMAN_520_YA] 0.782
GDEVEDLYELLKLVK [DPH6_HUMAN_97] 1.11
AQAQPEDYARFEAKI [DLG2_HUMAN_505_YA] 0.763
DEEMLFIYGHYKQAT [ACBP_HUMAN_29] 2.33
YNPATDDYAVPPPRS [DOK1_HUMAN_409] 0.568
GGQRREAYNDSSDEE [DNJA2_HUMAN_391] 1.18
WGRGTDEYFIRKPPS [ACHB_HUMAN_390] 1.89
GMYDGPVYEVPATPK [DPYL1_HUMAN_504] 0.561
GGMADPKYADLPGIA [DCTN2_HUMAN_6] 0.534
SPIAAEDYSPDDKPL [DNER_HUMAN_721_YA] 0.759
VQRKKPLYWDLYEHA [DOK1_HUMAN_337] 2.74
AGIAQGVYSRALLGN [ACD11_HUMAN_324_YA] 0.569

Biological target: SHP2 N-SH2 domain wild-type
Assay: as above
Settings: peptide library: Human pTyr

Enrichment score, active:
VQRKKPLYWDLYEHA [DOK1_HUMAN_337] 3.28

Enrichment score, inactive:
GMADGPVYEVPATPK [DPYL1_HUMAN_504_YA] 0.529
ILPPSSIYPSVLASG [DGKA_HUMAN_335] 0.515
YRLLLATYARPPRGP [DDR1_HUMAN_520] 0.699
VNDDQSFYADIAMED [DPYL2_HUMAN_32_YA] 1.14
NGMNQQAYAYPATAA [DDX5_HUMAN_593] 0.638
INDDQSLYADVYLED [DPYL1_HUMAN_32] 0.956
ARLLLATYARPPRGP [DDR1_HUMAN_520_YA] 0.671
GDEVEDLYELLKLVK [DPH6_HUMAN_97] 1.16
AQAQPEDYARFEAKI [DLG2_HUMAN_505_YA] 0.95
DEEMLFIYGHYKQAT [ACBP_HUMAN_29] 2.26
YNPATDDYAVPPPRS [DOK1_HUMAN_409] 0.669
GGQRREAYNDSSDEE [DNJA2_HUMAN_391] 1.28
WGRGTDEYFIRKPPS [ACHB_HUMAN_390] 2.11
GMYDGPVYEVPATPK [DPYL1_HUMAN_504] 0.534
GGMADPKYADLPGIA [DCTN2_HUMAN_6] 0.606
SPIAAEDYSPDDKPL [DNER_HUMAN_721_YA] 0.915
AGIAQGVYSRALLGN [ACD11_HUMAN_324_YA] 0.65

— the supplement of paper PMC10369915
